{"source": "paper PMC3562233", "about": "(PLoS ONE, 2013)", "key": {"[1]": {"tested_on": "MDCK cells"}, "[2]": {"tested_on": "yeast strain containing the empty plasmid", "format": "cell-based"}}, "note": "Read-outs that look alike come from different tables or passages of the source.", "data": [{"smiles": "N=C(N)NC(=O)c1nc(Cl)c(N2CCCCCC2)nc1N", "note": "[Compound 14, Hexamethylene amiloride]", "values": [{"measurement": "cytotoxicity towards uninfected MDCK cells", "setting": "[1]", "value": "more cytotoxic"}]}, {"smiles": "Cc1nc(C23CC4CC(CC(C4)C2)C3)c[nH]1", "note": "[Compound 10, 5-(adamantan-1-yl) -2-methyl-1H-imidazole]", "values": [{"measurement": "cytotoxicity towards uninfected MDCK cells", "setting": "[1]", "value": "very low cytotoxicity"}]}, {"smiles": "NC12CC3CC(CC(C3)C1)C2", "note": "[Amantadine, reference compound]", "values": [{"measurement": "effect on growth of the yeast strain containing the empty plasmid", "setting": "[2]; amantadine at 0.3, 1 or 3 µM, compound 6 at different concentrations, 40 h", "value": "not affected"}]}, {"smiles": "CCSC1=NCN(C2CCCCCCC2)CN1", "note": "[Compound 34, 3-cyclooctyl-6-(ethylthio)-1,2,3,4-tetrahydro-1,3,5-triazine]", "values": [{"measurement": "cytotoxicity towards uninfected MDCK cells", "setting": "[1]", "value": "very low cytotoxicity"}]}, {"smiles": "CC(NC(=S)NC(=O)C=Cc1ccco1)C12CC3CC(CC(C3)C1)C2", "note": "(stereo not drawn) [Compound 6, N-(([1-(1-adamantyl)ethyl]amino)carbonothioyl)-3-(2-furyl)acrylamide]", "values": [{"measurement": "cytotoxicity towards uninfected MDCK cells", "setting": "[1]", "value": "very low cytotoxicity"}, {"measurement": "effect on growth of the yeast strain containing the empty plasmid", "setting": "[2]", "value": "no effect"}]}]}
